Data on 44 compounds can be found in publication PMC4336329 (PLoS ONE, 2015).

The campaign covered roughly 310,000 compounds. About 2,200 (0.71%) showed an effect of 50% or more. The effect is printed as a negative number. The list shows a part of the results.

Chain of human ether-à-go-go-related gene (hERG) potassium channel (Q12809 whole entry, looked up): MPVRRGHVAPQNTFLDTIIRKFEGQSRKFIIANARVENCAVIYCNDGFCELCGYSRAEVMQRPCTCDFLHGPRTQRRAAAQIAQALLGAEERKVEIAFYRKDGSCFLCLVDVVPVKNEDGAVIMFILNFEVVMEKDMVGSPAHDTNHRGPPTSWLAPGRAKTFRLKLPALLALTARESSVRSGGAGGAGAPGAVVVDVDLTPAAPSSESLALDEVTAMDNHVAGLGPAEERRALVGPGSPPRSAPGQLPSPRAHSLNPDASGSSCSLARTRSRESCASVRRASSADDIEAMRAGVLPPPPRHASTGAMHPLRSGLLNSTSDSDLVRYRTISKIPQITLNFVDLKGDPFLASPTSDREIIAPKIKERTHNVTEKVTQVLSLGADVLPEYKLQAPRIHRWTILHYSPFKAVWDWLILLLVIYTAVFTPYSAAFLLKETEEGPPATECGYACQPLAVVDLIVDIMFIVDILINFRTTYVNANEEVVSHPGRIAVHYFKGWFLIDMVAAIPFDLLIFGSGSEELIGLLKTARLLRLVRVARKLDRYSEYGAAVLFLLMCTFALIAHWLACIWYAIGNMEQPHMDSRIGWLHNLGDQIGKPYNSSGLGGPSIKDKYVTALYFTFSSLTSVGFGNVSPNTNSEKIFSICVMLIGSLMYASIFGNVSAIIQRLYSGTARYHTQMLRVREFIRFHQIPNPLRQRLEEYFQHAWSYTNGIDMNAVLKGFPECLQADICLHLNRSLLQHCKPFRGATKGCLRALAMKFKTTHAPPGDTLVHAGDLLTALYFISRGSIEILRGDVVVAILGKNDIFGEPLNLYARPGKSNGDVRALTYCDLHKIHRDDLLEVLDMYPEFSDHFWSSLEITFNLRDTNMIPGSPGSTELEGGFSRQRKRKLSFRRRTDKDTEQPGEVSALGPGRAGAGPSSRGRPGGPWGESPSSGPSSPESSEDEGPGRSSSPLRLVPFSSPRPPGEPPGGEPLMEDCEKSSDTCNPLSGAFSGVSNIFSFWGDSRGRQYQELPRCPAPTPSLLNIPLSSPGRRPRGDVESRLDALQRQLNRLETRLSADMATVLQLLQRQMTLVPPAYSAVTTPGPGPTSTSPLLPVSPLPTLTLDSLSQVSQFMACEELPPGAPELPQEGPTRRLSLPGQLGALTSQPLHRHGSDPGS

The experiment addresses human ether-à-go-go-related gene (hERG) potassium channel (human, UniProt Q12809). In words: primary screen, population patch clamp on CHO cells stably expressing hERG.
As to `CC(=O)c1ccc(Cc2cnc(N)s2)cc1`, the “hERG current change (%, negative = inhibition) at 1uM” value was 1.51%.
The same measure for `COc1ccccc1CNC(=O)COC(=O)Cc1cccs1`: 6.33%; for `Cc1cc(C(=O)OCC(=O)N(CC(C)C)c2c(N)n(Cc3ccccc3)c(=O)[nH]c2=O)c(C)o1`: 9.08%; for `Cc1ccc(NC(=O)NC(=S)NC(=O)c2ccccc2)cc1`: -4.83%.
The same measure for `COc1ccc(C(=O)NCCC(=O)N2CCC3(CC2)NCCc2[nH]cnc23)cc1`: 18.4%; for `COC(=O)c1ccc(OC(=O)C2CC(=O)N(c3cccc(C)c3)C2)cc1` (centres unmarked): 5.65%.
Next, `COC(=O)C1=C(C(=O)OC)SC(=C2C(=S)C(C)(C)N(C(=O)C3CC3)c3ccccc32)S1`: 3.98%; `O=C(CN1C(=O)COc2ccc(Cl)cc21)N1CCOCC1`: 9.59%.
Regarding `COc1ccccc1NC(=O)CCc1nnc2ccc(NCc3ccco3)nn12`, the “hERG current change (%, negative = inhibition) at 1uM” value was determined as 10.8%.
Next, `O=C(c1ccc2c3c(cccc13)CC2)N1CCN(c2ncccn2)CC1`: 7.43%; `CSc1nnc(C(C)(C)C)c(=O)n1/N=C/c1ccccc1`: 2.52%; `CSC(=NNC(=O)c1ccc(O)cc1)SC`: 12.7%.
The same measure for `CCc1ccc(OCC(=O)OC2CCS(=O)(=O)C2)cc1` (centres unmarked): 5.54%; for `Cc1ccc(-n2nc3ccc(NC(=O)C(C)C)cc3n2)cc1`: 8.82%.
`CN(Cc1cccs1)C(=O)c1cc(S(=O)(=O)N2CCOCC2)ccc1F`: the “hERG current change (%, negative = inhibition) at 1uM” value stood at 4.08%.
Next, `Br.CC(=O)c1cccc(N=c2scc(-c3ccc(S(=O)(=O)N4CCOCC4)cc3)n2CCO)c1`: -16.5%; `CC(=O)N(C1=C(N)C(=O)c2ccccc2C1=O)C(C)C`: 12.3%.
The same measure for `Oc1ccccc1N1CCN(c2ncnc3scc(-c4ccccc4)c23)CC1`: 13.3%.
Turning to `CCC(=O)Nc1ccccc1C(=O)OCC(=O)c1cccc2ccccc12`, the “hERG current change (%, negative = inhibition) at 1uM” value is listed as -1.34%.
The same measure for `O=C(Nc1ccc(Cl)cc1Cl)c1ccc(Br)o1`: 6.99%; for `Cn1c(=O)oc2cc(S(=O)(=O)NCCN3CCCCCC3)ccc21`: 19.5%; for `CC(C)(C)C(CN1CCCC1)OC(=O)c1ccccc1.Cl` (centres unmarked): 12.7%.
With `COCC1CCN(C(=O)c2cc(COc3ccc(C)c(C)c3)on2)C1` (centres unmarked), the “hERG current change (%, negative = inhibition) at 1uM” value is 5.45%.
The same measure for `O=S(=O)(c1ccc(F)cc1)N1CN(Cc2ccco2)c2nc3ccccc3nc21`: 10.6%; for `CCc1cc(C(=O)OC)c(NC(=O)CC2NCCNC2=O)s1` (centres unmarked): 13.1%; for `NS(=O)(=O)c1ccc(Cl)c(C(=O)Nc2ccccc2[N+](=O)[O-])c1`: 8.75%.
As to `CCC(C(=O)Nc1ccncc1)c1ccccc1` (centres unmarked), the “hERG current change (%, negative = inhibition) at 1uM” value stood at 13.4%.
Regarding `Cc1cccc(CSc2nnc(NC(=O)CSc3nnc(C)s3)s2)c1`, the “hERG current change (%, negative = inhibition) at 1uM” value worked out at 4.56%.
On to `O=C(c1ccccc1)N1CCCCC(Cl)C1=O` (centres unmarked), for which the “hERG current change (%, negative = inhibition) at 1uM” value is 7.83%.
On to `O=C(NCc1ccccc1Cl)C1CC(=O)N(Cc2ccccc2)C1` (centres unmarked), for which the “hERG current change (%, negative = inhibition) at 1uM” value is 0.378%.
The same measure for `CN(C(=O)COc1ccccc1)c1nc(-c2ccc(F)cc2)cs1`: 13.3%; for `O=C(O)c1ccc(Br)c(S(=O)(=O)N2CCCC2)c1`: 9.41%.
Next, `CCC(C)[C@H](NC(=O)N1CCn2c1nc1ccccc12)C(=O)NCCc1ccccc1` (some centres unmarked): 13.3%; `CCOC(=O)c1sc(N/N=C/c2cc(Br)c(O)c(OC)c2)nc1C`: 8.39%; `O=C(Nc1cccnc1)c1cc(-c2cccnc2)nc2ccc(Br)cc12`: -17.5%.
In the case of `CSCCC(N=C1NS(=O)(=O)c2ccccc21)C(=O)NCCc1ccccc1` (centres unmarked), the “hERG current change (%, negative = inhibition) at 1uM” value is 30.7%.
Next, `CC1CC(C)CN(c2ccc(C(=O)OCC(=O)NC3CCCc4ccccc43)cc2[N+](=O)[O-])C1` (centres unmarked): 17.5%; `COc1ccc(/C=C/C(=O)OCC(=O)c2c(N)n(C)c(=O)n(C)c2=O)cc1`: 9.03%.
Next, `NS(=O)(=O)c1ccc(NC(=O)Nc2cccc(Cl)c2)cc1`: 17%; `CC1Oc2ccccc2N(CC(=O)NCC2CCCO2)C1=O` (centres unmarked): -4.78%.
Next, `FC(F)(F)c1ccc2c3n(nc2c1)CCN=C3c1ccc(Cl)cc1`: 12.3%; `CCc1nn(-c2ccccc2)c(=S)c2ccccc12`: 6.04%.
On to `Cc1nn(-c2ccccc2)c(Cl)c1/C=C1\SC(=S)N(CCCCCC(=O)O)C1=O`, for which the “hERG current change (%, negative = inhibition) at 1uM” value is given as -4.69%.
Next, `CNC(=O)c1ccc(-c2ccc(OC)cc2)s1`: 15.6%.
